Data taken from publication PMC3844262 (Journal of immunology (Baltimore, Md. : 1950), 2013).

Tested on: peptide-pulsed B6 splenocyte targets in acute LCMV-infected mice
Set-up: species or system C57BL/6 (B6) mice
Details: mouse, iv

## STNLFNNL [VV-E7R]
  Specific lysis of peptide-pulsed targets in vivo (four peak assay): no killing was observed
